Experimental data taken from patent US9193768B2, “Peptide for inhibition of binding between angiopoietin-2 and integrin and use thereof” (Samsung Electronics Co., Ltd., priority 2012, dated 2015).

Key:
integrin (α5β1) = target: T1, integrin (α5β1) (Homo sapiens, UniProt P05556+P08648); test: Flow cytometry: FLAG-Ang2 binding to integrin on the membrane of transfected CHO cells; type: cell-based; conditions: C-body 10 μg/ml along with FLAG-Ang2, FIG. 17
T1 construct: myc-His (vector pcDNA3.1(+)/myc-His A) (C); host or cells: CHO cells
T1 sequence (P08648 42-894 limits assumed): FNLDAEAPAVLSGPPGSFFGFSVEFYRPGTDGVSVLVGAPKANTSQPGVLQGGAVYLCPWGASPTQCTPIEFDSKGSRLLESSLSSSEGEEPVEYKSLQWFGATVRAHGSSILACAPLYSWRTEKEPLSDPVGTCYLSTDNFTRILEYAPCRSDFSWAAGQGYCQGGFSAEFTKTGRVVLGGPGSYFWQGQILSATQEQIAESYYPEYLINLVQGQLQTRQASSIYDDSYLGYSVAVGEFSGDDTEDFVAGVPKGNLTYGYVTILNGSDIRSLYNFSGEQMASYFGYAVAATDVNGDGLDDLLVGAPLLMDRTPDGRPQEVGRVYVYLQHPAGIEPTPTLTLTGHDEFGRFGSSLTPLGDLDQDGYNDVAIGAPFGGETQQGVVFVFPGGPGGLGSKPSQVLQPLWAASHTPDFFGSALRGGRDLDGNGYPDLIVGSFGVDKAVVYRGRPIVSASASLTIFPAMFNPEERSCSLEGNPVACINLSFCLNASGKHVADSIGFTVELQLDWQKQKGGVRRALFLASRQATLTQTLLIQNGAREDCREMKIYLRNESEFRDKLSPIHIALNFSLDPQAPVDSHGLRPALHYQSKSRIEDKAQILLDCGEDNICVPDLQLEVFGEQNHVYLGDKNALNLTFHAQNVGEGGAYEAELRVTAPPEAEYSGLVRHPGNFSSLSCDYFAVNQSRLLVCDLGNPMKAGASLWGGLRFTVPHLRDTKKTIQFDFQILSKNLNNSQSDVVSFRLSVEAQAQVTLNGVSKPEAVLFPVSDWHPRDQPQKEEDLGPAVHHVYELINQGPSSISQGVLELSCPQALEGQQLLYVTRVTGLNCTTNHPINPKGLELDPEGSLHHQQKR
T1 sequence (P08648 895-1049 partner limits assumed): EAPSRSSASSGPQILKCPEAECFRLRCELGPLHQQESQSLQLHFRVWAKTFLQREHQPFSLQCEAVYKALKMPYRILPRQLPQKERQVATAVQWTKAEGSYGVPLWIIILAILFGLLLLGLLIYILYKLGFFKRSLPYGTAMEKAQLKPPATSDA
T1 sequence (P05556 21-798): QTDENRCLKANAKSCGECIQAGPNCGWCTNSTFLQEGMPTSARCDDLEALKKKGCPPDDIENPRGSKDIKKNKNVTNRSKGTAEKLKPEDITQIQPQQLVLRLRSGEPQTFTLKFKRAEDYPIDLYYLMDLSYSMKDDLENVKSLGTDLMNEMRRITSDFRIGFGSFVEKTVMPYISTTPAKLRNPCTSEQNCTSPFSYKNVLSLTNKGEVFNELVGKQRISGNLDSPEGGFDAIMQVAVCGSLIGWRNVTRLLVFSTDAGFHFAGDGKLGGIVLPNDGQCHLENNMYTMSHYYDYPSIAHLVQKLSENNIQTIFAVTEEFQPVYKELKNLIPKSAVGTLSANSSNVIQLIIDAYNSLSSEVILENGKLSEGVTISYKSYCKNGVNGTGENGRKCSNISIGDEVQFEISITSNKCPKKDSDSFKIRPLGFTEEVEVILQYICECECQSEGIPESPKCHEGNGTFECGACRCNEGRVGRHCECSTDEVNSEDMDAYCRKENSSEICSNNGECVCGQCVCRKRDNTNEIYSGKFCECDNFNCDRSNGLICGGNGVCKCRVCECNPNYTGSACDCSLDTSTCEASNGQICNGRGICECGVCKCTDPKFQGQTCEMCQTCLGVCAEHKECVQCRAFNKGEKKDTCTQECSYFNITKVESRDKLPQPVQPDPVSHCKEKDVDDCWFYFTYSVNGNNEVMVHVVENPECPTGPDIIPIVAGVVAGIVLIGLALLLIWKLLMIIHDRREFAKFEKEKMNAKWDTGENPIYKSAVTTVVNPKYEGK
Excerpt: cDNA pairs of each integrin (α5β1, αVβ1, and αVβ3) and cDNA (pTRACER™-CMV2, Invitrogen) encoding green fluorescent protein (GFP) as a transfection marker were transfected into Chinese Hamster Ovary (CHO) cell line (Korea Research Institute of Bioscience and Biotechnology, Biological Resource Center) using lipofectamine 2000 reagent (Invitrogen) pursuant to the manufacturer's recommended experimental procedures. Each cDNA (integrin α5, αV, β1, β3 4 kinds) used for transfection was purchased from Origene, with the corresponding open reading frame amplified using polymerase chain reaction, and cloned into pcDNA3.1(+)/myc-His A (invitrogen).
The transfected cells were cultured under normal cell cultivation conditions (IMDM media containing 10% fetal bovine serum and penicillin/streptomycin at 10%, CO2 incubator at 37° C.) for 24 hours.
Then, the cells were detached according to Example 1.1 above, re-suspended in serum-free media (IMDM) at about 2×10^7 cells/ml, and incubated at 4° C. for 1 hour after 45 μl of the cell solution was mixed with 5 ml of FLAG-Ang2 diluted in PBS at a concentration of 200 μg/ml. After the cells were fixed using 3% (v/v) formaldehyde and washed with IMDM, they were dyed with anti-FLAG antibody (Sigma) conjugated with R-phycoerythrin and then analyzed using flow cytometry. […]

integrin (αVβ3) and Ang2 = target: T2, integrin (αVβ3) and Ang2 (Homo sapiens, UniProt P05106+P06756); test: ELISA: inhibition of FLAG-Ang2 binding to coated integrin by C-body; conditions: C-body 0, 0.8 and 4 μg/ml; FIG. 22
T2 construct: purchased R&D systems
T2 sequence (P06756 31-889 limits assumed): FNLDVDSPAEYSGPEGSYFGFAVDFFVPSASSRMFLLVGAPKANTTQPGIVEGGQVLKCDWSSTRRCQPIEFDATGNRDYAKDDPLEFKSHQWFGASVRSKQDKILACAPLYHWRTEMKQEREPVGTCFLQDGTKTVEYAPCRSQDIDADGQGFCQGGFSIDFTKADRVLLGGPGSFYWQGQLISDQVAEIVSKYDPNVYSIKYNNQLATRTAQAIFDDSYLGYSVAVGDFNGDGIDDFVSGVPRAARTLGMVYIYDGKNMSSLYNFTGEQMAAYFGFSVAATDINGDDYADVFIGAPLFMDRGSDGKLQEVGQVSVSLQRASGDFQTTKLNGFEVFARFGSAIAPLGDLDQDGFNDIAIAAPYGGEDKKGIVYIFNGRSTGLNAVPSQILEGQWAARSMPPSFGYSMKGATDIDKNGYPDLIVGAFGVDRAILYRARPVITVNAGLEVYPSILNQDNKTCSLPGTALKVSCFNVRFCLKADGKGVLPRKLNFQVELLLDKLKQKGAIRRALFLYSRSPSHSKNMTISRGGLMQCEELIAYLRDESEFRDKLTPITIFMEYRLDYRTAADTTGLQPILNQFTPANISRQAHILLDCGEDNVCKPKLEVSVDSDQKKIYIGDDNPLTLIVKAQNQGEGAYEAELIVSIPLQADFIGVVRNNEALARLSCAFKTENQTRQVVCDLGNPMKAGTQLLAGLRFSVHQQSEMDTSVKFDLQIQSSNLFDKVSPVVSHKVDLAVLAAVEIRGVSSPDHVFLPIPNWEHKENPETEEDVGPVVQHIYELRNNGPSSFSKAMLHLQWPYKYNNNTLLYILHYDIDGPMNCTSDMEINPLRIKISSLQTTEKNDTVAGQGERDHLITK
T2 sequence (P06756 891-992 partner limits assumed): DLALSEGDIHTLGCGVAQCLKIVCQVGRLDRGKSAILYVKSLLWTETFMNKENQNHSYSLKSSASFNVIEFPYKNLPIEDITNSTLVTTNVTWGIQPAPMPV
T2 sequence (P05106 27-718 limits assumed): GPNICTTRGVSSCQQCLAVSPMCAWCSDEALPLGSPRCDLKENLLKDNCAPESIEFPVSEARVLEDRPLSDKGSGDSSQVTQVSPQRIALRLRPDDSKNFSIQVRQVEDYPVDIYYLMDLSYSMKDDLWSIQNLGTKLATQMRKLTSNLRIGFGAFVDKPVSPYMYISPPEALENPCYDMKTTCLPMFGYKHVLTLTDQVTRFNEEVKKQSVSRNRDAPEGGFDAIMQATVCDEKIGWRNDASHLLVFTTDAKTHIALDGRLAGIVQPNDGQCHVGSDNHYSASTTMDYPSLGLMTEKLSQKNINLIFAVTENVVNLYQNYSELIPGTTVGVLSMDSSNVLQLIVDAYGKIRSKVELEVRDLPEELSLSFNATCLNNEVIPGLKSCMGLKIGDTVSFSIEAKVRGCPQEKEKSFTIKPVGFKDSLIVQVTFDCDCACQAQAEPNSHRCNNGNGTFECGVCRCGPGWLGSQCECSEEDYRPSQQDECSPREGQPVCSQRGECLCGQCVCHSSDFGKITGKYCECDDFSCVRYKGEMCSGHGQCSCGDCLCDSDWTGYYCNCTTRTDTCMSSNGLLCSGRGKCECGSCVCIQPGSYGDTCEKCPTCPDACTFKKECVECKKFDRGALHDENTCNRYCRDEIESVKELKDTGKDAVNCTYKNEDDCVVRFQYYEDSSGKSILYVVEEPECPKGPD
Procedure: After an ELISA plate was coated with diluents obtained by diluting 3 kinds of integrin proteins (alpha5beta1 (α5β1; α5: NCBI Accession No. P08648, β1: NCBI Accession No. P05556), alphaVbeta1 (αVβ1; αV: NCBI Accession No. P06756, β1: NCBI Accession No. P05556), and alphaVbeta3 (αVβ3; αV: NCBI Accession No. P06756, β3: NCBI Accession No. P05106); R&D systems)) in PBS at a concentration of 5 μg/ml (18 hours, 4° C.), it was blocked with 1% (v/v) BSA at a room temperature for 2 hours. Thereafter, it was treated with Ang2 protein having FLAG sequences (DYKDDDDK, Sigma) tagged at its N-terminal (FLAG-Ang2, 0.1 ml of Ang2 protein solution diluted in PBS at a concentration of 10 μg/ml), incubated at a room temperature for 2 hours, and washed 5 times with PBS-t (0.1% (v/v) triton X-100 in PBS). Then, it was followed by the addition of anti-FLAG antibody (Sigma) conjugated with horse radish peroxidase (HRP) and washed 5 times with PBS-t. Binding between Ang2 and 3 kinds of the integrins was verified indirectly by measuring the quantity of anti-FLAG antibody remaining in the ELISA plate through color development reaction using TMB (3,3,5,5-tetramethylbenzidine) as a substrate of HRP. As a negative control, one plate which was blocked without Ang2 protein treatment (BSA treatment only) was used. […]

[1] = test system: lymphatic endothelial cells (LEC); test: Migration of lymphatic endothelial cells induced by Ang2 (xCelligence, CIM-plate 16); type: cell-based; conditions: C-body 10 μg/ml with 2 μg/ml Ang2; FIG. 20, FIG. 21 (24 hours)
Procedure: To each well of the lower chambers of CIM-plate 16 (GE healthcare) was added EBM media (Lonza) to which 2% (v/v) fetal bovine serum (FBS) was added, and 2 μg/ml of Ang2 along with either 10 μg/ml of C-body produced in Example 8, or μg/ml of Fc, a negative control, (human IgG1). The plates were assembled with the upper chambers coated with fibronectin. 40,000 lymphatic endothelial cells (LEC; Lonza) resuspended in serum-free media were added to each well, which was then equipped to xCelligence Realtime cell analyzer (GE Healthcare), and the impedance between the upper chambers and lower chambers was measured and marked for 30 hours to quantify cell migration.
The control set forth in FIG. 20 and FIG. 21 refers to a negative control with no treatment given.

U87MG cells = test: Ang2 dependent adhesion of U87MG cells to Ang2-coated wells (CellTiter-Glo luminescence); type: cell-based, human
Procedure: A 96-well plate was treated with 100 μl of a solution obtained by diluting Ang2 (R&D systems; 623-AN-025/CF) in a phosphate buffered saline (PBS) at a concentration of 10 μg/ml and incubated at 4° C. for 16 hours so that the wells were coated with Ang2. Thereafter, the Ang2-coated 96 wells were washed twice with PBS, treated with 200 μl of PBS containing 2% (v/v) bovine serum albumin (BSA) and then incubated at a room temperature for 2 hours for blocking. For a negative control, wells that were blocked without Ang2 coating (i.e., treated with BSA only) were prepared. […]
Then, the plate was washed 4 times with serum-free media that was warmed to 37° C. to remove cells that were not adhered. The adhesion level of cells was quantified by adding 200 μl of CellTiter-Glo reagent (Promega) diluted in IMDM at 1:1 and then, measuring luminescence at EnVision® Multilabel Reader (PerkinElmer) after 10 min.
When Ang2-coated plates were treated with U87MG cells in accordance with the same methods as in Example 1.1, they were co-treated with one of the 41 peptides derived from Ang2 set forth in Table 2 to investigate the inhibition effects of the peptides against the adhesion of U87MG cells (see FIG. 8). […] That is, after the addition of 200 μl of CellTiter-Glo reagent (Promega) diluted in IMDM at 1:1, their luminescence was measured at EnVision® Multilabel Reader (PerkinElmer) after 10 min. […]

[2] = test system: FAK (focal adhesion kinase); test: FAK phosphorylation in U87MG cells on coated wells (western blotting); type: cell-based, human; conditions: C-body 5 μg/ml
Procedure: In accordance with Example 2 above, 6 wells were coated with 100 μg/ml of poly-L-lysine, 10 μg/ml of Ang2, or 10 μg/ml of fibronectin, respectively, and 2 ml of a U87MG cell suspension (about 3×10^5 cells/ml) was added to the surfaces blocked with 2% (v/v) BSA to perform a cell adhesion test. When the cells were added, 5 μg/ml of C-body was or was not treated with regard to each coating condition. After the induction of cell adhesion in a CO2 incubator of 37° C. for 2 hours, the adhered cells and non-adhered cells were collected and they subjected to western blotting using an antibody which recognizes only FAK phosphorylated at tyrosine of No. 397 (Life Technologies) or an antibody which recognizes only FAK phosphorylated at serine of No. 910 (Life Technologies) to investigate the phosphorylation level of FAK.

Ang2-Tie2 binding = target: T3, Ang2-Tie2 binding (Homo sapiens, UniProt Q02763); test: ELISA: Ang2-Tie2 binding with or without C-body; conditions: C-body 5 μg/ml, FLAG-Ang2 5 μg/ml; FIG. 19
T3 construct: purchased R&D systems
T3 sequence (Q02763 23-745 limits assumed): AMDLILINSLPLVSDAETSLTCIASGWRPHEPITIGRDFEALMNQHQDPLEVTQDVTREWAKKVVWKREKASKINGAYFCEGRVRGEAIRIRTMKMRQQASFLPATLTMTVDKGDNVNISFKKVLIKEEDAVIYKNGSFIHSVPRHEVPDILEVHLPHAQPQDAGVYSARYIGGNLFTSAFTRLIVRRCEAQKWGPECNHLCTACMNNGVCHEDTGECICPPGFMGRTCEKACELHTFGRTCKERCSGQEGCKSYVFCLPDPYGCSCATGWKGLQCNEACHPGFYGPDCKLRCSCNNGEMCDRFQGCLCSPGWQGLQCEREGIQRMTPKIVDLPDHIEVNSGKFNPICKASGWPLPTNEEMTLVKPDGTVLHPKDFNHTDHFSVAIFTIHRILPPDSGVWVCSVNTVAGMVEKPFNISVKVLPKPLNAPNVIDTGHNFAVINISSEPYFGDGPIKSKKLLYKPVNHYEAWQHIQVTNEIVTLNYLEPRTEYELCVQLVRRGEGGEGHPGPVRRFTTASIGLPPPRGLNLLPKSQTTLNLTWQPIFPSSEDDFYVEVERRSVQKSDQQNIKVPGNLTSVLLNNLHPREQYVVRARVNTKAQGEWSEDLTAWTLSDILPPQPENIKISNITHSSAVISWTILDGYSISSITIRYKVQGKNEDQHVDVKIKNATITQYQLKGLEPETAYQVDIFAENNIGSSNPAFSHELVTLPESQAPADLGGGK
Procedure: As in Example 6, while Tie2-coated ELISA plates were being incubated after the addition of 100 μl of FLAG-Ang2 (5 μg/ml), they were treated or not treated with C-body at a concentration of 5 μg/ml to examine any changes in Ang2-Tie2 binding according to the presence or absence of C-body.

[3] = poly-L-lysine, Ang2 or fibronectin coating, FIG. 18

B1: C-body: peptibody: four-fold Peptide 15/Gly-Gly-Gly-Ser linker repeats fused at N-terminal and C-terminal of human IgG1 Fc fragment, dimer (protein)
chain: EYWLGNEFVSQLTNQGGGSEYWLGNEFVSQLTNQGGGSEYWLGNEFVSQLTNQGGGSEYWLGNEFVSQLTNQGGGS[omitted - human IgG1 Fc]GGGSEYWLGNEFVSQLTNQGGGSEYWLGNEFVSQLTNQGGGSEYWLGNEFVSQLTNQGGGSEYWLGNEFVSQLTNQ
**Q.** Which “inhibition of binding between Ang2 and integrin (α5β1) on cell surface” value (integrin (α5β1)) does the source give for B1 here?
**A.** remarkably inhibited binding between Ang2 and integrin

**Q.** What about the “inhibition of binding between integrin (αVβ3) and Ang2” value (integrin (αVβ3) and Ang2) of the same molecule?
**A.** inhibited binding between integrin (αVβ3) and Ang2 in a concentration-dependent manner

**Q.** What about the “migration of lymphatic endothelial cells” value [1] of the same molecule?
**A.** remarkably reduced to the control level

**Q.** And the “inhibition of U87MG cell adhesion” value (U87MG cells; C-body 20 μg/ml or 5 μg/ml, compared with no treatment (0 μg/ml), FIG. 16)?
**A.** remarkably inhibited cell adhesion

**Q.** And the “cell adhesion inhibition effects” value (U87MG cells; C-body at a low concentration (e.g., 5 μg/ml))?
**A.** excellent cell adhesion inhibition effects

**Q.** What about the “phosphorylation of tyrosine of No. 397 of FAK” value ([2]; Ang2 coating condition, FIG. 18) of the same molecule?
**A.** highly reduced

**Q.** What about the “inhibition of the binding of fibronectin and integrin” value ([2]; concluded from FAK Tyr397 phosphorylation under fibronectin coating) of the same molecule?
**A.** does not inhibit

**Q.** And the “expression levels of overall FAK” value [2, 3]?
**A.** little difference

**Q.** What about the “phosphorylation of serine of No. 910 of FAK” value [2, 3] of the same molecule?
**A.** little difference

**Q.** And the “inhibition effects on Tie2-Ang2 binding” value (Ang2-Tie2 binding)?
**A.** did not exhibit inhibition effects
